Here are results for 167 variants from the RNAGym collection of RNA variant scans (doi:10.7554/elife.90254).

Read counts are not given, so values of variants with three or more changes are uncertain.

The chains are these.
B1: OR4K15 (parent)
chain: GUUAACGGUCAUAGGCCAUGGAAACUAGGAGCACCAUUUCGCUGCCAGUGAAGAAAUGAACAAAGAAAAUCUGGGCCAGGCAGGCAUCAAAAGAAAUAGUCUUGCGCUCAACCAGAAAGUCUGUAAUCAUUUUAAGGGUA

Variants of B1 are the subject of this series. The experiment in a line: self-cleavage, relative activity (ratio to wild type); higher = more cleavage; in vitro, sequencing; the parent is a self-cleaving ribozyme.
In the case of A33G A54G A90G U100A, the self-cleavage was determined as 0.31.

With A33G C45G A51G U131C, the self-cleavage came out at 0.5.

As for A33G A59U A118G, the self-cleavage was 0.4.

Regarding A33G A62G A96G, the self-cleavage stood at 0.91.

On to A33U A82G A89U A94G, for which the self-cleavage was 1.11.

For the variant A33C A68G A82G, the self-cleavage worked out at 0.56.

Regarding A33G A51U A96G, the self-cleavage is 1.19.

Regarding A33G U43A G75A A94G, the self-cleavage was 0.13.

Consider A33C A51G A110G, for which the self-cleavage was 0.46.

In the case of A33G A36U U132G, the self-cleavage is 0.51.

For A33U A59G A90G, the self-cleavage stood at 1.04.

A33G A91G U103C A118G A135G: the self-cleavage is 0.1.

In the case of A33G U57C A86G, the self-cleavage was 1.06.

Consider C32U A63U A86U U108C, for which the self-cleavage stood at 0.02.

As for A33U A62G A92G, the self-cleavage stood at 2.33.

With A33G U49C A89G, the self-cleavage was 0.42.

Consider A33U A64G U122A A126G U132A, for which the self-cleavage amounted to 0.78.

In the case of A33G A52G U57A A67G, the self-cleavage came to 0.54.

Turning to A33G A36U A94G A111G, the self-cleavage amounted to 0.04.

In the case of A33U A111U U130C, the self-cleavage is 0.06.

With A33G A52G A62G, the self-cleavage amounted to 0.7.

Turning to A33U A95G C107G A117G, the self-cleavage came to 0.02.

Turning to A33C U37C G138U, the self-cleavage was determined as 2.05.

As for C32U C45G A110G A116G, the self-cleavage was found to be 0.01.

Regarding A33G A64G U72C, the self-cleavage stood at 0.18.

Regarding A33G U38G A82U, the self-cleavage stood at 0.06.

Regarding A33G A51G A117G, the self-cleavage was 1.05.

Turning to A33G C34A U120C A135G, the self-cleavage came out at 0.66.

Turning to A33G A36U U38C A67G, the self-cleavage was 1.1.

Take A33U U38C A55G U108C: the self-cleavage turned out to be 0.02.

On to A33G A54G A55G U97C A117U, for which the self-cleavage amounted to 0.33.

For A33C A67G U130C, the self-cleavage came to 1.15.

As to A33U U38C A56G U100C, the self-cleavage was determined as 2.28.

As for A33G A47U U102C, the self-cleavage is 1.32.

For the variant A33G A86G A140G, the self-cleavage worked out at 0.52.

In the case of A33C A78U A126U, the self-cleavage worked out at 0.24.

As to A33C A56G A62G, the self-cleavage amounted to 0.63.

Turning to A33C U49G A60G U102C U122G, the self-cleavage was 2.64.

For the variant A33G A118G U120C, the self-cleavage came to 0.11.

For A33U G115U A140U, the self-cleavage is 0.08.

For the variant C32U U39C U70C, the self-cleavage worked out at 1.17.

With A33G U39C U43C A64G C112U, the self-cleavage was 0.02.

On to A33G A68G G73A, for which the self-cleavage is 0.18.

With A33U U37A U108C, the self-cleavage turned out to be 0.

A33G U43A A82U U132C: the self-cleavage came to 0.06.

C32U A67G A116G A118G U130C: the self-cleavage came to 0.07.

A33U U38C U132A G136U: the self-cleavage was 1.63.

With A33U A96G A111G, the self-cleavage is 0.04.

With A33U A59G A116U U131C, the self-cleavage amounted to 0.36.

Consider A33U A47G U87C U108C A117G, for which the self-cleavage stood at 0.

On to A33U A54U C76U A126G U132C, for which the self-cleavage is 0.08.

For A33G A66G U87C, the self-cleavage was determined as 1.4.

A33U A55G U103C U131C: the self-cleavage is 0.86.

Consider A33G A51G U100G, for which the self-cleavage was 1.99.

For A33G A67G A78U, the self-cleavage stood at 0.18.

A33G A60G A78G U97A: the self-cleavage worked out at 0.13.

A33G U130C U131C: the self-cleavage turned out to be 0.24.

On to A33G A68G G74A, for which the self-cleavage stood at 0.27.

For the variant A33G A60G A64C, the self-cleavage stood at 0.58.

For the variant A33U U37C A69G, the self-cleavage turned out to be 1.08.

As to A33C A54G A129U, the self-cleavage stood at 1.32.

Regarding A33G U37C U70C U97C, the self-cleavage is 0.08.

Turning to A33G A69G U70C, the self-cleavage was 0.43.

On to A33G A63G A118G A126G, for which the self-cleavage came out at 0.22.

As to A33G A78G U100C, the self-cleavage is 0.25.

Regarding A33G A91G A111U A135G, the self-cleavage was determined as 0.06.

A33G U39C A82U: the self-cleavage came to 0.29.

With C32U A55G A59U A94G, the self-cleavage stood at 0.84.

In the case of A33G A82G A95U A110G, the self-cleavage was 0.04.

On to A33G A54G U72A A91U U122C, for which the self-cleavage came to 0.07.

Turning to A33G A111G U122C, the self-cleavage came to 0.07.

Regarding A33G A55G A89G A126G, the self-cleavage worked out at 0.45.

For A33G A47U A60G U132C, the self-cleavage is 0.13.

On to A33C A56G A62U A92U U103C, for which the self-cleavage turned out to be 0.92.

On to A33G U37C U43C U70C U87C, for which the self-cleavage was found to be 0.58.

For A33U A68G U108C, the self-cleavage worked out at 0.01.

As to A33U A95G U103C, the self-cleavage turned out to be 2.08.

Take A33G A68G C109U: the self-cleavage amounted to 0.23.

In the case of A33C A62U A140U, the self-cleavage turned out to be 1.66.

Take A33U A55G U70A A89U: the self-cleavage came to 1.26.

For the variant A33G U37A A52G, the self-cleavage worked out at 1.87.

As for A33G U37C U49C A94G A135G, the self-cleavage turned out to be 0.41.

A33G A56G A118G: the self-cleavage is 0.39.

A33G A52G A78U: the self-cleavage turned out to be 0.39.

With A33G A98U A117U, the self-cleavage turned out to be 1.44.

For the variant A33G A89G U127C U133A, the self-cleavage stood at 0.26.

For A33G G106A U131C, the self-cleavage was 0.01.

On to A33G U120C A134G, for which the self-cleavage is 0.37.

On to A33G A59U A67G, for which the self-cleavage came out at 0.56.

On to A33G U38A A62G U103C, for which the self-cleavage turned out to be 0.41.

A33G A86G A96G U130C G137A: the self-cleavage came to 0.26.

On to A33G A56G A60G, for which the self-cleavage was found to be 0.74.

In the case of A33G U70C U103C U122A, the self-cleavage was 0.05.

Consider A33G A82G G136A, for which the self-cleavage amounted to 0.69.

For the variant A33G C85A A110C, the self-cleavage is 0.1.

For A33G U38C A129G, the self-cleavage is 0.99.

On to C32U A59U U131C, for which the self-cleavage came to 1.43.

Consider A33G A52G A54U, for which the self-cleavage is 0.86.

Regarding A33G A63G U102C, the self-cleavage came out at 1.73.

On to A33G U39C A64G U102A A135G, for which the self-cleavage was 0.72.

C32U U37C A52G U70A A92C: the self-cleavage is 0.08.

In the case of A33G A62G C113U, the self-cleavage stood at 0.04.

For the variant A33G A63G A126G, the self-cleavage was 0.42.

As to A33C G41A A82U, the self-cleavage was determined as 0.18.

For the variant A33G U37C A64G U72A A82G, the self-cleavage was 0.04.

Take A33G A51G A69U: the self-cleavage was found to be 0.96.

With A33G C45U A91G, the self-cleavage is 0.72.

For A33G A92G A114U U124A, the self-cleavage was found to be 0.01.

Consider A33G U38C A117G A118G U120C, for which the self-cleavage was 0.26.

Turning to C32U A56G A140G, the self-cleavage is 1.21.

For the variant C32U U37C U39C U122C, the self-cleavage came to 1.3.

Regarding A33G U38C U72C A117G, the self-cleavage came out at 0.21.

For the variant A33G U57C A64G, the self-cleavage is 0.27.

With A33G C35U A89G, the self-cleavage stood at 0.7.

Consider A33C U49C U70C, for which the self-cleavage came out at 1.24.

On to A33G A63G A69G, for which the self-cleavage was 1.02.

As to A33C C113A A118G, the self-cleavage is 0.01.

Regarding A33G A129U U131C, the self-cleavage turned out to be 0.27.

Consider A33G A89G U120A U139C, for which the self-cleavage worked out at 1.04.

Consider A33G U70C A78U A92U, for which the self-cleavage turned out to be 0.13.

Consider A33G A89U U102C, for which the self-cleavage amounted to 1.3.

Take A33U U38C U43C A60G A69G G73A: the self-cleavage worked out at 0.14.

On to A33G A64G A94G A96G, for which the self-cleavage is 0.65.

On to A33G U43C A94C, for which the self-cleavage came out at 0.49.

As for A33G U49C A114G, the self-cleavage was determined as 0.14.

Turning to C32U U38C U39A A56G U70C U87A U124A, the self-cleavage worked out at 0.1.

Turning to A33G A89U U108C, the self-cleavage is 0.02.

Take A33G A89U A110G U132A: the self-cleavage is 0.05.

With A33G U72C A114U A117G, the self-cleavage came to 0.01.

With A33U U37A U39C A126U, the self-cleavage came to 1.27.

With A33G A94U A129G, the self-cleavage amounted to 0.5.

Take A33U A78G A82G U124C: the self-cleavage was 0.11.

With A33C A66G A96U U103C A111U, the self-cleavage was determined as 0.13.

Regarding A33G A69U U108C, the self-cleavage turned out to be 0.01.

Consider A33U U38A A62U, for which the self-cleavage turned out to be 1.58.

A33G A82G U108C U132C: the self-cleavage is 0.01.

As for A33G A68G C85G A94G, the self-cleavage was 0.2.

As to A33G A51G A52G, the self-cleavage was determined as 0.55.

Regarding A33G U39C A68G U103C, the self-cleavage is 0.88.

On to A33G A66G U87C A110C, for which the self-cleavage was found to be 0.07.

In the case of A33U A78G A94G U108A C113A A114G, the self-cleavage came to 0.01.

As for A33G U37C A116G, the self-cleavage was determined as 0.17.

With A33G A60G A62G A66G A89G A91G A92G A134G, the self-cleavage is 0.54.

As to A33G A67G A118G, the self-cleavage was 0.35.

As to A33G A96G A125G, the self-cleavage was determined as 0.22.

For A33U A51U A96G U132C, the self-cleavage stood at 1.92.

Take A33G U102C U130C: the self-cleavage is 1.22.

Turning to A33G A69G A94G, the self-cleavage is 1.02.

With A33G A98G U127C, the self-cleavage was 0.1.

For A33G A62U A63G A94G A96U, the self-cleavage came out at 0.33.

For the variant A33U C112A U122G, the self-cleavage turned out to be 0.01.

Turning to C32U A54U U97C C113U, the self-cleavage was 0.05.

In the case of A33G U37C A96G A116G, the self-cleavage turned out to be 0.32.

With A33G U37C A60G A134G, the self-cleavage was found to be 1.05.

For the variant A33U A90G A116G, the self-cleavage was 0.64.

On to A33G A117U U124G, for which the self-cleavage was 0.06.

In the case of A33U A52G A60G, the self-cleavage was found to be 1.22.

For A33U A66G A96G, the self-cleavage was 2.56.

Consider A33G A98G U133C, for which the self-cleavage is 0.49.

Consider A33G U57A U122C, for which the self-cleavage was determined as 0.96.

In the case of A33G A89G U122A, the self-cleavage was determined as 0.16.

Turning to A33G U102C A111G, the self-cleavage came out at 0.02.

As for A33G C42U A78U U97C, the self-cleavage amounted to 0.1.

As for A33U A114G G115A, the self-cleavage is 0.13.

Turning to A33U A52G U72A U108C A135U, the self-cleavage came to 0.01.

In the case of A33G U72C A98G G99A, the self-cleavage was 0.08.

Regarding A33G A67G A69U A92G A96G, the self-cleavage is 1.
